Experimental findings from patent US4990497A, “Antifungal antibiotics” (priority 1989, dated 1991) are described below.

One assay deals with Candida albicans A9540. The assay is described as follows: In vivo antifungal activity, Candida albicans intravenous infection in mice. Further details: species or system mice (male ICR). As to conditions: im b.i.d. on days 0 and 1, day 20; for ED50: Candida albicans, A9540, 480 h, read-out: PD50. As to the method: The methyl and ethyl esters of BU-3608 were also evaluated against C. albicans A9540 infections in mice using the protocol described above. […] It is postulated that these esters are hydrolyzed in vivo to provide the active parent compound.

The subject of assay [1] is Cryptococcus neoformans IAM 4514. The assay is described as follows: In vivo antifungal activity, Cryptococcus neoformans intravenous infection in mice. To be noted: im b.i.d. on days 0 and 1, day 20.
Assay [2] concerns Aspergillus fumigatus IAM 2034. As to the kind of experiment: In vivo antifungal activity, Aspergillus fumigatus intravenous infection in mice. As to conditions: im b.i.d. on days 0 and 1, day 20, challenge 20x median lethal dose. Further details: species or system mice (male ICR).
Where [3] appears, read: challenge 20x (BU-3608) or 10x (B, C) median lethal dose.
The mark [4] stands for this setting: dose 3.1 mg/kg/inj., challenge 20x (BU-3608) or 10x (B, C) median lethal dose.
Where [5] appears, read: dose 6.3 mg/kg/inj., challenge 20x (BU-3608) or 10x (B, C) median lethal dose.
The mark [6] stands for this setting: dose 12.5 mg/kg/inj., challenge 20x (BU-3608) or 10x (B, C) median lethal dose.
The mark [7] stands for this setting: dose 25 mg/kg/inj., challenge 20x (BU-3608) or 10x (B, C) median lethal dose.

As to `COc1cc(O)c2c(c1)C(=O)c1c(cc3c(c1O)-c1c(cc(C)c(C(=O)N[C@H](C)C(=O)O)c1O)C(O[C@@H]1O[C@H](C)[C@H](N)[C@H](O[C@@H]4OC[C@@H](O)[C@H](O)[C@H]4O)[C@H]1O)C3O)C2=O` (stereo partly drawn), the ED50 in the assay on Candida albicans A9540 (setting [3]) amounted to 16 mg/kg. Further, the Number of survivors/tested with Candida albicans A9540 (dose 6.9 mg/kg/inj., challenge 10x median lethal dose) is reported as 0/5; in the assay with Candida albicans A9540 (dose 14 mg/kg/inj., challenge 10x median lethal dose), 2/5; in the assay with Candida albicans A9540 (dose 28 mg/kg/inj., challenge 10x median lethal dose) it was 5/5; in the assay on Candida albicans A9540 (dose 55 mg/kg/inj., challenge 10x median lethal dose), 5/5.
`CN[C@@H]1[C@H](O)[C@@H](O)[C@H](OC2c3cc(C)c(C(=O)N[C@H](C)C(=O)O)c(O)c3-c3c(cc4c(c3O)C(=O)c3cc(OC)cc(O)c3C4=O)C2O)O[C@@H]1C` (stereo partly drawn) [BU-3608 B]: the Number of survivors/tested in assay [1] (setting [4]) is 1/5; in assay [1] (setting [5]), 0/5; in assay [1] (setting [6]) it was 3/5; in assay [1] (setting [7]), 5/5; in the assay on Candida albicans A9540 (setting [4]) it was 0/5; in the assay on Candida albicans A9540 (setting [5]) it was 1/5. The figures for the Number of survivors/tested in the assay with Candida albicans A9540 (setting [6]) and in the assay on Candida albicans A9540 (setting [7]) were 0/5 and 3/5, respectively.
Regarding `CN[C@@H]1[C@H](O[C@@H]2OC[C@@H](O)[C@H](O)[C@H]2O)[C@@H](O)[C@H](OC2c3cc(C)c(C(=O)N[C@H](C)C(=O)O)c(O)c3-c3c(cc4c(c3O)C(=O)c3cc(OC)cc(O)c3C4=O)C2O)O[C@@H]1C` (stereo partly drawn) [BU-3608], the Number of survivors/tested in assay [1] (dose 1.6 mg/kg/inj., challenge 20x median lethal dose) was 1/5; in assay [1] (setting [4]), 2/5; in assay [1] (setting [5]) it was 5/5; in assay [1] (setting [6]) it was 5/5; in assay [1] (setting [7]) it was 5/5; in the assay with Candida albicans A9540 (setting [4]), 1/5. Moreover, the Number of survivors/tested with Candida albicans A9540 (setting [5]) is 0/5; in the assay with Candida albicans A9540 (setting [6]), 3/5; in the assay on Candida albicans A9540 (setting [7]) it was 4/5; in the assay on Candida albicans A9540 (dose 50 mg/kg/inj., challenge 20x median lethal dose) it was 5/5; in assay [2] (dose 1.6 mg/kg/inj.), 0/5; in assay [2] (dose 3.1 mg/kg/inj.) it was 0/5. The Number of survivors/tested is reported as 3/5 in assay [2] (dose 6.3 mg/kg/inj.), 3/5 in assay [2] (dose 12.5 mg/kg/inj.) and 4/5 in assay [2] (dose 25 mg/kg/inj.). The ED50 with Candida albicans A9540 (setting [3]) was 11 mg/kg; in assay [2] (Aspergillus fumigatus, IAM2034, 480 h, read-out: PD50) it was 5.7 mg/kg.
